Results from the supplement of paper PMC3334620.
Over roughly 33,000 sequences, “E-score (-0.5 to 0.5)” has its median near -0.054; the highest 2% begin near 0.39. The list shows a part of the results.

These sequences were tested against Ylr278c (UniProt Q05854) (assay: PBM E-score (8-mer binding enrichment) (E-score (-0.5 to 0.5)); higher = stronger / more preferred TF binding; most listed sequences are background and not binding sites). Conditions: protein concentration: 200 nM; construct: GST-DNA-binding domain.
In short: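 Yeast transcription factors, full-length or as DNA-binding domains, were expressed with a GST tag using PURExpress in vitro transcription/translation. At about 100-200 nM they were applied to universal all-10-mer Agilent arrays, double-stranded by primer extension on fresh or once-stripped slides. Fluorescent anti-GST detected bound protein, and masliner normalised the scans. E-scores for ungapped eight-base words, pooled with reverse complements, came from the Universal PBM Analysis Suite.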

Sequence	PBM E-score
CCTTATTA	-0.0752
AAGGCATT	-0.246
AAAGGTGT	-0.0287
CAGGACTC	-0.151
CCCCAGAG	-0.173
ACCCACTC	-0.0396
AATTGACT	-0.0516
ATCGGCCA	0.187
ACCAGCCA	-0.207
CACGTACC	-0.152
GACGACGC	-0.211
CGTGTCAC	0.0133
ATACGTCA	-0.0294
AGCGGTCG	-0.0665
AAACTTGC	-0.0141
ATGTTCTA	0.0446
ACCTCCCA	-0.337
GACTGACC	-0.273
ACCCACAA	0.00936
AGAGCAGC	-0.24
TCCATTCA	-0.0823
CAACTCGG	0.139
GACCAATA	-0.149
AGTGCCAT	-0.211
GCACTAGC	-0.0613

Sequence	PBM E-score
CCGCCCTC	0.295
GGCTGCTA	-0.0639
CCGTCGGA	0.415
CAAGTTTC	-0.0901
ACCATGCT	-0.0722
CTAGCTGC	-0.243
AGGAGTAC	-0.136
AATTTTAT	0.217
CACCATTC	-0.163
ACCAATGA	-0.18
AGTCCGAA	0.425
ATAGTTGG	-0.122
CCCAAGGG	-0.238
ACCGGGAC	0.313
GTGACGAA	-0.152
AATAAGAG	0.137
TGCGTAAA	-0.0211
TATGCTCA	-0.0938
ATGTCCAA	0.0298
CCTTGCAA	-0.357
GCTGTGAA	-0.274
ATTCAAAC	-0.0321
ACGGGAGA	0.00568
ACAGGTTA	-0.251
CCCAACCA	0.0249

Sequence	PBM E-score
AGTAGTCG	-0.0443
GTTCACCA	-0.0632
AATTCATC	-0.0488
AGCCCCAG	0.00427
AATGAGCA	-0.124
GCGAAGAC	0.18
CGTTCTTC	-0.0105
GAAAACCC	0.246
CGGGCATC	0.133
GATAATAA	0.0865
CGGAAGTA	0.342
CCCCACCG	0.262
GATATTGC	0.0334
GCCGAAGC	0.272
AGGTGCCG	0.269
CCGTAGAG	0.0318
CGCTAAAC	0.0639
CAGTAAGC	-0.123
ATGCCCAG	-0.0681
GGGAGATA	-0.0385
CCGATCGC	0.228
AGAGAATC	-0.0802
CGAACACA	-0.0492
TCATCGAA	-0.174
AGTATGAT	-0.0096

Sequence	PBM E-score
CGCGGTTA	0.133
ACGTTTTG	-0.234
GGCGAGCA	0.0201
GTCTAAAA	-0.133
CCGGTGAG	0.217
GGATTGCA	0.0845
AAAGGTGA	-0.179
AGAAAAGG	-0.151
TACATACA	-0.112
GATGATAC	0.0473
ATAAACGG	0.216
GCTAATAA	-0.0659
GCCCGCGC	0.262
AATCGTCA	-0.173
CAGGCAGG	-0.198
CACCCCTG	-0.149
ACCGTAGG	-0.158
AATCGTGA	-0.0534
CGCGTTAA	0.0131
CGGCGACG	0.311
CCTATCCG	0.114
CCTGTACG	-0.132
AGTGTCGG	0.373
CACGTCGG	0.306
CAATCGGA	0.425

Sequence	PBM E-score
ACGTCAGT	-0.144
GACGTATA	-0.0885
CACGCCAA	-0.192
ATAAAAGC	-0.00834
AGTGGTTC	-0.122
TTACCAAA	-0.0662
GATGAGGC	-0.156
GAAGCGCA	0.246
GCCTCTAC	-0.279
CCAGCAGC	-0.108
AGGGTCAA	-0.00892
GGTAATAC	0.175
ATAAGTTA	-0.103
AGCCCTTA	-0.232
GTCGTAAC	-0.159
ACCGATAA	0.269
ACTAGCAG	-0.293
CTGTAGTC	-0.0825
AGCTCTAC	-0.2
ATACTAAG	-0.0703
CCTTGCCA	-0.16
GAATTCCC	0.155
CCGAGAAA	0.37
ATGCTGCC	-0.0605
CTCAGTCC	-0.0718

Sequence	PBM E-score
CAACCATA	-0.136
CGCGTGCA	-0.0498
CGAATCAA	0.00118
GCGTAAGC	-0.00035
CCGTGTAG	0.0296
CAGCTATA	-0.0641
ATGCATAG	-0.158
CGCTAAGA	0.0342
CACGGGTC	0.016
CGCCCCTC	0.0739
GGATTCCA	0.207
GACGGTAC	0.018
ATCACATA	-0.172
CACCATGA	-0.00895
CAGATCTA	-0.168
GATGAGCC	-0.0805
GGCTTCCA	0.0292
ATGATAAC	-0.0976
ATGCAACG	-0.0447
AGGTATGA	-0.111
ACAACGTC	0.141
ATGACCGC	0.131
CTTTCCGA	0.354
CGCGAACA	0.0712
AATTGCTC	-0.0378

Sequence	PBM E-score
ACTGATCA	-0.0604
CCGCTTTA	0.195
GCCCGAAA	0.236
ATAGATTA	0.00461
CATCGCAG	-0.0787
GCCGTCCA	0.0661
AGACGCTG	-0.109
GGGTGTTA	-0.0335
GACGGAGC	0.378
ACAATCAA	-0.0226
CCCTAGCG	-0.352
AACGACAA	0.0288
AAATGATG	0.0314
CACATTCG	0.0166
AGTCCACG	-0.0171
ATTACCGA	0.224
ATCGGTGA	0.114
AGATTATC	-0.0114
AATGCTCA	-0.162
AGCGAAGG	-0.0577
CCGTTATC	0.157
CTCCCTAA	-0.143
